From US20240342284A1 (ARSENAL BIOSCIENCES, published 2024) come the findings set out here.

The target in assay [1] is T1, human Prostate-Specific Membrane Antigen (PSMA) expressed on cells (human, UniProt Q04609).
T1 construct: also called FOLH1; HEK293T-PSMA
As to the kind of experiment: flow cytometry histograms on the wt line 293T-LP81-PSMA (CL571), secondary mouse anti human IgG2 stain. On the technique in general: In flow cytometry, cells or beads pass a laser one at a time.

Assay [2] deals with T2, human PSMA with Y75H SNP, expressed on HEK293T cells (human, UniProt Q04609).
T2 construct: also called PSMA-Y75H; PSMA isoform SNP Y75H
The experiment in a line: flow cytometry histograms on the Y75H PSMA HEK293T line, secondary mouse anti human IgG2 stain. From the text:
HEK293T cell lines were generated to express PSMA with a Y75H single nucleotide polymorphism (SNP). PSMA 1 and PSMA 2 scFvs were used to stain the PSMA-Y75H cell line followed by a secondary mouse anti human IgG2 stain. […] Thus, both PSMA 1 and PSMA 2 could bind to various isoforms of PSMA.

B1: PSMA 2 scFv (scFv)
scFv: EIVLTQSPATLSLSPGERATLS[gap - about 80 residues]TFGQGTKLEIKGGGGSGGGGSGGGGSQVQLVQSGAEVKKPGASVKVSCKASGYTFSSYGVSWVRQAPGQGLEWMGWISKYNGNTNYAQKFQGRVTMTTDTSTSTAYMELRSLRSDDTAVYFCARGGIHGDSYYFYYLDVWGKGTTVTVSS
notes: It was detected with a secondary 'mouse anti human IgG2' stain
As for B1, the binding result in assay [1] and in assay [2] was “binds” each time.

B2: PSMA 1 scFv (scFv)
scFv: [gap - about 100 residues]GGGGSGGGGSGGGGSQVQLVQSGPEVKKPGASVKVSCKASGYTFTSYGITWVRQAPGQGLEWMGWISEYNGNTNYAQKFQGRVTMTIDTSTTTAYMELRSLRSDDTAVYFCARGGILPYYFFYYMDVWGKGTTVTVSS
notes: as for B1
On to B2, for which the binding result in assay [1] and in assay [2] was “binds” in each case.
